Laboratory results taken from PubChem BioAssay AID2528 (National Center for Advancing Translational Sciences (NCATS), 2010).
Values joined by “and” are separate entries in the source; they are usually repeats but may differ in a detail not shown here. Identical values can stand only once. Screen size: about 350,000 compounds; about 700 (0.2%) were called active. The shares of active, inactive and inconclusive entries below differ from those in the screen. The call rests on the fitted dose curve; in most records, active means well fitted inhibition curve with a large enough effect; inconclusive means small, poorly fitted or top-dose-only effect; inactive means flat fitted curve, though single readings scatter. Where the call is inconclusive, the potency comes from a doubtful curve fit. More than one record can exist for a structure, and the calls need not agree.

target: RecQ-like DNA helicase BLM (Homo sapiens) (UniProt P54132); assay: qHTS Assay for Inhibitors of Bloom's syndrome helicase (BLM); settings: recombinant BLM DNA unwinding, fluorescence dequenching; series mostly up to 56.1 µM; further: nearly all actives have a fitted effect of over 35% in size
Potency means the concentration at half of the fitted maximal effect; tags describe the fitted curve by direction and shape.

Sequence of UniProt P54132 (P54132 whole entry, looked up): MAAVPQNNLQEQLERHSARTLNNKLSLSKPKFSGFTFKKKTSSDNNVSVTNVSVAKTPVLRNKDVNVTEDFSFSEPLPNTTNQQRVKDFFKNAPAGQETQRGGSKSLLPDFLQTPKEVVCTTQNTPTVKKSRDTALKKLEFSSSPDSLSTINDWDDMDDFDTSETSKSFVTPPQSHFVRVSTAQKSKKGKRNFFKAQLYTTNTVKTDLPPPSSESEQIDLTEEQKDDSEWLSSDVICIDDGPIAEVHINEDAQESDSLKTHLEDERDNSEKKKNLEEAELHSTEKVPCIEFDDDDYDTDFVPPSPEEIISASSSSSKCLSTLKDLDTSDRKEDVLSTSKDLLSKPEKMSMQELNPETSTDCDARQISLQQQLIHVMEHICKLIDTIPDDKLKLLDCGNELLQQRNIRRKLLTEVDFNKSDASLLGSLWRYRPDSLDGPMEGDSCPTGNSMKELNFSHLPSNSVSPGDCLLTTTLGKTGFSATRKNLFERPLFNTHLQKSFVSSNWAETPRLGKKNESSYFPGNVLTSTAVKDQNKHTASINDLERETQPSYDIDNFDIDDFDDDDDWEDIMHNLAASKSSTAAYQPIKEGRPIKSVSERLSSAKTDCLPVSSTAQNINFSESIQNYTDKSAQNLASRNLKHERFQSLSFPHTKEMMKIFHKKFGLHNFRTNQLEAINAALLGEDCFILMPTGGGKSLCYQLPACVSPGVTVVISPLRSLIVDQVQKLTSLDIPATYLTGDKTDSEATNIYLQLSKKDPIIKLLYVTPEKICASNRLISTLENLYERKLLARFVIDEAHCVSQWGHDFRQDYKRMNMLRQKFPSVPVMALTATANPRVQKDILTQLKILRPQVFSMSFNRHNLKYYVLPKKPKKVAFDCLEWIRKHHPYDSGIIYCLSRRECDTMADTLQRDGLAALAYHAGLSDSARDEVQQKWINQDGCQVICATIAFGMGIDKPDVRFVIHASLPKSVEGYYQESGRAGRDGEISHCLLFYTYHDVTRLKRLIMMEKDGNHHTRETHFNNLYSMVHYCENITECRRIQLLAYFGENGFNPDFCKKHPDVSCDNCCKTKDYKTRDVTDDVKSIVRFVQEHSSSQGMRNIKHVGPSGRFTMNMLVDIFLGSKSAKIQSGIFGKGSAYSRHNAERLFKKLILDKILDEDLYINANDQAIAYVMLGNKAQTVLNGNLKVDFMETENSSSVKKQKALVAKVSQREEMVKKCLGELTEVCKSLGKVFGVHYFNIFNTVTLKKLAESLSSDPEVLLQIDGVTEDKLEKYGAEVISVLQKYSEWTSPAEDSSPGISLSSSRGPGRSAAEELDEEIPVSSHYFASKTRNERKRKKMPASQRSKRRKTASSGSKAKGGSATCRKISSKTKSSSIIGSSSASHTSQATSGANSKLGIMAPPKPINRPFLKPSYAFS

SMILES	Potency
Cc1ccc(S(=O)(=O)/N=C2/NC(=O)/C(=C\c3cc(Br)cc(Br)c3O)S2)cc1	inconclusive: 28.2 µM [inhibitor, single point]
CN(Cc1ccccc1)C(=O)COC(=O)/C=C/c1ccco1	active: 20 µM
C=C(c1ccc(C(=O)O)cc1)c1cc2c(cc1C)C(C)(C)CCC2(C)C	inconclusive: 28.2 µM [inhibitor, single point]
CNc1ccc(Br)cc(C(=O)/C=C/c2cccc(Cl)c2Cl)c1=O	inactive
S=c1[nH]nc(-c2cccc(Cl)c2)n1/N=C/c1ccco1	inconclusive: 39.8 µM [inhibitor, single point]
COc1cccc2c1C(=O)c1c(O)c3c(c(O)c1C2=O)C[C@](O)(C(=O)CO)C[C@@H]3O[C@H]1C[C@H](N)[C@@H](O)[C@H](C)O1	inactive
O=C1NNC(c2ccccc2)=N/C1=C\c1ccccc1Cl	inconclusive: 31.6 µM [inhibitor, single point]
COc1ccc(Nc2nc(NCC3CCCO3)c3ccccc3n2)c(OC)c1 (stereo not given)	inconclusive: 20 µM [inhibitor, partial curve]
Cc1cc(NC(=O)COc2cccc3cccnc23)no1	inconclusive: 22.4 µM [inhibitor, single point]
Cc1nn(C)c(C(=O)Nc2cccc(Nc3ccccc3)c2)c1[N+](=O)[O-]	inconclusive: 31.6 µM [inhibitor, single point]
COc1ccc(NS(=O)(=O)c2cccc(NC(=O)c3ccc(S(=O)(=O)N4CCCCCC4)cc3)c2)cc1	inactive
COc1cccc(CNc2ccc(N3CCCCC3)cc2)c1OC	inactive
Cc1ccc(C(=O)O)cc1-c1ccc(/C=C2\SC(=O)N(CC(=O)Nc3ccc4c(c3)OCO4)C2=O)o1	active: 25.1 µM
Cc1ccccc1CN1C(=O)CS/C1=N/N=C/c1ccco1	inconclusive: 28.2 µM [inhibitor, single point]
Cc1nn(CCc2nc(-c3ccco3)cs2)c2[nH]c(=O)cc(C(F)(F)F)c12	inconclusive: 31.6 µM [inhibitor, single point]
CCn1c(C)c(C2=CCN(S(=O)(=O)c3ccccc3)CC2)c2ccccc21	inactive
COc1ccc(Cn2c(-c3ccccc3)nc3c(c(=O)c4ccccc4n3C)c2=O)cc1	inconclusive: 25.1 µM [inhibitor, single point]
O=C(c1ccccc1)N1CCN(S(=O)(=O)c2cccs2)CC1	inactive
Cc1cc(C)c2nc(-c3ccccn3)cc(C(=O)Nc3ccc(S(=O)(=O)Nc4cc(C)on4)cc3)c2c1	inconclusive: 28.2 µM [inhibitor, single point]
COc1cc(NC(=O)C2CCN(S(=O)(=O)c3c(C)noc3/C=C/c3ccccc3F)CC2)cc(OC)c1OC	inactive
COc1ccc(OC)c(NC(=O)CCN2CCN(CCO)CC2)c1	inactive
CN1C(=S)N(c2cccnc2)C(=O)/C1=C\c1ccc(N(C)C)cc1	inactive
CCCCCc1ccc(OCCCC[n+]2cccc(C)c2)c(CCCCC)c1	inconclusive: 39.8 µM [inhibitor, single point]
Cc1ccc(S(=O)(=O)c2cc3cc(Br)ccc3oc2=O)cc1	inactive

SMILES	Potency
COc1cc(/C=C2\SC(=S)N(NC(=O)c3ccccc3OC)C2=O)ccc1O	inconclusive: 25.1 µM [inhibitor, partial curve, poor fit]
Cc1ccc(Nc2nc(/N=C/NO)n[nH]2)cc1C	inactive
N#CC(C#N)=C1C=C2C=C(N3CCCCCC3)CCC2CC1 (stereo not given)	active: 12.6 µM
Oc1oc(-c2ccccc2Br)nc1C=Nc1ccc(Br)cn1	inconclusive: 14.1 µM [inhibitor, partial curve]
CCOc1ccc(C2C(C(=O)Nc3ccccc3)=C(C)N=c3s/c(=C/c4cccc(OCC(=O)O)c4)c(=O)n32)cc1 (stereo not given)	inconclusive: 31.6 µM [inhibitor, single point]
O=[N+]([O-])c1ccc(/C=N/Nc2ncc(Br)cn2)cc1	inactive
Cc1nc2c(c(=O)n1Cc1ccco1)c1nc3ccccc3nc1n2Cc1ccccc1	inconclusive: 28.2 µM [inhibitor, single point]
CCc1nc2sc3ccccc3c(=O)c2c(=O)n1Cc1ccco1	inconclusive: 28.2 µM [inhibitor, single point]
C=CCn1c(=S)[nH]c2scc(-c3ccco3)c2c1=O	inconclusive: 31.6 µM [inhibitor, single point]
C=CCn1c(N)c(S(=O)(=O)c2cccs2)c2nc3ccccc3nc21	inconclusive: 35.5 µM [inhibitor, single point]
O=C(Nc1ccccc1)/C(=C/c1ccccc1)c1ccccc1	inactive
COc1ccc(NC(=O)c2c3c(nc4ccccc24)CCC3)cc1S(=O)(=O)N1CCOCC1	inconclusive: 12.6 µM [inhibitor, partial curve]
O=C(c1cnccn1)N1CCC2(CCCN(Cc3ccccc3)C2)CC1	inactive
Cc1cc(-c2ccco2)c(C#N)c2nc3ccccc3n12	active: 2.51 µM
CCCCn1c(N)c(-c2nc3ccccc3o2)c2c([N+](=O)[O-])nn(C)c(=O)c21	inconclusive: 15.8 µM [inhibitor, partial curve]
O=C(Nc1cccc(-c2cnc3ccccc3n2)c1)c1ccccc1	inactive
COC(=O)c1ccc(COc2ccccc2/C=C/C(=O)c2ccc(OCC(=O)O)cc2)cc1	inconclusive: 35.5 µM [inhibitor, single point]
CCOC(=O)c1c(NC(C)=O)sc2c(OCCN(CC)CC)c(Br)ccc12	inactive
CCCCC/C=C\C/C=C\C/C=C\C/C=C\CCCC(=O)C(F)(F)F	inconclusive: 25.1 µM [inhibitor, single point]
O=C(O)c1c(Sc2ccccc2)c2cc(Cl)ccc2n1Cc1ccc(Cl)cc1	inconclusive: 35.5 µM [inhibitor, single point]
C/C(=C\C=C(C#N)C#N)c1cc(C#N)c(N)o1	inconclusive: 28.2 µM [inhibitor, partial curve]
CCN1/C(=C/C=C/C=C/c2sc3ccccc3[n+]2CC)Sc2ccccc21	inconclusive: 31.6 µM [inhibitor, single point] and inconclusive: 39.8 µM [inhibitor, single point]
Cc1ccc(CNC(=O)CC(C)S(=O)(=O)c2ccc3c(c2)NC(=O)CO3)cc1 (stereo not given)	inactive
O=C1NC(=S)SC1=C1CCCCCC1	inconclusive: 39.8 µM [inhibitor, single point]

SMILES	Potency
O=C1CC(c2ccc(O)c(O)c2)Oc2c1ccc(O)c2O (stereo not given)	active: 3.98 µM
CN(C)c1ccc(C(=C2C=CC(=[N+](C)C)C=C2)c2ccc(N(C)C)cc2)cc1	active: 22.4 µM
COc1ccc(/C=N/Nc2cc(C)nc3ccc(OC)cc23)c(OC)c1	active: 25.1 µM
CCC(=O)c1ccc2c(c1)N(CCCN1CCN(CCO)CC1)c1ccccc1S2	inactive
CCCCn1c(NC(=O)c2ccccc2Cl)c(C#N)c2nc3ccccc3nc21	inconclusive: 31.6 µM [inhibitor, single point]
COc1ccc(Cn2c3nc4ccccc4nc3c3c(=O)n(Cc4ccco4)cnc32)cc1	inactive
Cc1ccc(N(CC(=O)NCCSc2ccccc2)S(=O)(=O)c2ccc(F)cc2)cc1	inactive
COc1ccc2c(c1)nc(NCCCO)n2Cc1ccccc1	inactive
Oc1ccc(NCc2ccccc2OCc2ccccc2)cc1	inconclusive: 35.5 µM [inhibitor, single point]
Cc1cc(C)c2oc(-c3ccc(C)c(NC(=S)NC(=O)/C=C/c4ccco4)c3)nc2c1	inconclusive: 22.4 µM [inhibitor, single point]
O=C(Nc1ccc2oc(-c3ccccc3)nc2c1)c1cc(-n2cnnc2)ccc1Cl	inconclusive: 39.8 µM [inhibitor, single point]
O=C(NCCc1ccccc1)c1ccc2nc(-c3ccco3)c(-c3ccco3)nc2c1	active: 7.08 µM
CC(/C=N/NC(=O)c1nnn(-c2nonc2N)c1C(C)C)=C\c1ccccc1	inconclusive: 20 µM [inhibitor, partial curve]
Cc1nc2c(=O)[nH]c(=S)n(C)c2nc1C	inactive
O=c1c(-c2cc(O)c(O)c(O)c2)coc2cc(O)c(O)c(O)c12	active: 11.2 µM
Cc1cccc(NC(=O)CN2C(=O)S/C(=C\c3ccc(-c4cccc(C(=O)O)c4C)o3)C2=O)c1	inconclusive: 39.8 µM [inhibitor, single point]
Cc1ccc(C(=O)CSc2nnc(-c3ccco3)n2Cc2ccccc2)cc1	inactive
CSc1nsc(/C=C/Nc2ccc(C(=O)O)cc2)c1C#N	active: 28.2 µM
Cc1cc2c(cc1S(=O)(=O)NCc1ccccc1Cl)OCC(=O)N2	inactive
O=C(Nc1cc(C(=O)Nc2ccc(S(=O)(=O)O)cc2S(=O)(=O)O)cc(C(=O)Nc2ccc(S(=O)(=O)O)cc2S(=O)(=O)O)c1)Nc1cc(C(=O)Nc2ccc(S(=O)(=O)O)cc2S(=O)(=O)O)cc(C(=O)Nc2ccc(S(=O)(=O)O)cc2S(=O)(=O)O)c1	inconclusive: 15.8 µM [inhibitor, single point]
Nc1c(C(=O)Nc2nccs2)sc2nc(-c3cccs3)cc(C(F)(F)F)c12	inconclusive: 39.8 µM [inhibitor, single point]
O=C(Nc1cccc([N+](=O)[O-])c1)c1cccc(C(=O)Nc2cccc([N+](=O)[O-])c2)c1	inconclusive: 15.8 µM [inhibitor, partial curve]
